Measurements as given in PubChem BioAssay AID485294 (National Center for Advancing Translational Sciences (NCATS), 2010).
In all, about 370,000 compounds went through this assay and about 150 (0.041%) were called active. The inconclusive results got no clear call from the source; some entries with a clear call stand among them for comparison. Calls come from the whole dose curve; as a rule, active = well fitted inhibition curve with a large enough effect; inconclusive = small, poorly fitted or top-dose-only effect; inactive = flat fitted curve, though single readings scatter. Potencies of inconclusive entries are left out as doubtful fits.

Biological target: Beta-lactamase (Escherichia coli (strain K12)) (UniProt P00811)
Chain of UniProt P00811 (P00811 whole entry, looked up): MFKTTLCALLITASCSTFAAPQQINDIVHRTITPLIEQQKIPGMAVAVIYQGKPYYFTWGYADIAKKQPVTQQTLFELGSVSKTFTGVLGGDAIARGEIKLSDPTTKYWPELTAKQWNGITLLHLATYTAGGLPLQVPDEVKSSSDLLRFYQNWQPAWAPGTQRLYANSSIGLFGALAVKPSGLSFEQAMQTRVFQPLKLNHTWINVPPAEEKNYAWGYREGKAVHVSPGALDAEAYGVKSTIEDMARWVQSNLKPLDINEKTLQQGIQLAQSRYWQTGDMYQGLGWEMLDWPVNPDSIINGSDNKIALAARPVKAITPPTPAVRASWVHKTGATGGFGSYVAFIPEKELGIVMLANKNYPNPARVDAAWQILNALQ
Test: qHTS Inhibitors of AmpC Beta-Lactamase (assay with detergent); note: nearly all actives have a fitted effect of over 25% in size;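 for activity change, negative = inhibition: 0% = no-compound wells and -100% = no-enzyme wells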
Settings: AmpC hydrolysis of nitrocefin, absorbance 480 nm, 0.01% Triton; activity change, negative = inhibition: at 114 µM (top of the series)
How it was run: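 20 mM phosphate pH 7.0 + 0.01% (detergent screen) or 0.0001% Triton X-100; 5.3 nM AmpC reagent; cpd preinc 15 min RT; nitrocefin (800 uM stock) to start; A480 q20 s × 4 min; Activity was normalised to no-enzyme and no-compound control wells.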
Potency is the fitted concentration of half-maximal effect; tags give direction and shape of the fitted curve.

| SMILES | Potency | activity change, negative = inhibition |
| --- | --- | --- |
| COC(=O)c1ccc(CNC(=O)c2ccc(OCC(=O)N3CCOCC3)c(OC)c2)cc1 | inconclusive [inhibitor, partial curve] |  |
| O=C(CSC1=NS(=O)(=O)c2ccccc2N1)Nc1nccs1 | inconclusive [inhibitor, single point] |  |
| Cc1cccc(Cn2c(N(C)CCO)nc3c2c(=O)[nH]c(=O)n3C)c1 | inconclusive [inhibitor, full curve, poor fit] |  |
| O=S(NCc1ccccc1)C12CC3CC(CC(C3)C1)C2 (centres undefined) | inconclusive [inhibitor, single point] |  |
| O=C(CN1CCCC1c1ccc2c(c1)OCCO2)NC(=O)Nc1ccccc1F (centres undefined) | inconclusive [inhibitor, full curve, poor fit] |  |
| CCOc1ccc(OCC)c(NC(=O)CSc2nc3c(c(=O)n(C)c(=O)n3C)n2C(C)C)c1 |  | inactive: -0.297% |
| Cc1ccccc1-n1ncc2c1CC(C)(C)CC2NC(=O)c1ccncc1 (centres undefined) |  | inactive: -2.2% |
| Cc1ccccc1NC1=C(Cl)C(=O)OC1OC(=O)c1ccccc1C (centres undefined) | active: 20 µM |  |
| CCN(C(=O)c1cc2cc(OC)ccc2oc1=O)c1ccccc1 | inconclusive [inhibitor, full curve] |  |
| O=C(O)CSc1ccccc1C(=O)O | inconclusive [inhibitor, full curve, poor fit] |  |
| CN(C)C(=O)Cn1c(=O)n(S(=O)(=O)c2ccccc2)c2ccccc21 | inconclusive [inhibitor, full curve] |  |
| Cc1ccc2nc(Cc3ccc(N)cc3)[nH]c2c1 | inconclusive [inhibitor, full curve, poor fit] |  |
| Cc1ccc(S(=O)(=O)C(C#N)c2nc3ccccc3nc2N2CC(C)OC(C)C2)cc1C (centres undefined) | inconclusive [inhibitor, full curve, poor fit] |  |
| Clc1ccccc1CN(Cc1ccccc1)c1ncnc2nc[nH]c12 | inconclusive [inhibitor, full curve, poor fit] |  |
| COc1ccc(NC(C)=O)cc1S(=O)(=O)NCCc1ccccn1 | inconclusive [inhibitor, full curve, poor fit] |  |
| OC(COc1ccc(F)cc1Cl)CN1CCc2ccccc2C1 (centres undefined) | inconclusive [inhibitor, partial curve, poor fit] |  |
| Cc1cc(C)cc(NC(=O)CN(C)S(=O)(=O)c2ccc3c(c2)CCC(=O)N3)c1 |  | inactive: 18.2% |
| CC1CC(C)CN(C(=O)c2cn(C)c3ccc(S(=O)(=O)N(C)C)cc3c2=O)C1 (centres undefined) | inconclusive [inhibitor, partial curve] |  |
| CC(C)NC(=O)c1onc(CSc2cccc(F)c2)c1C(=O)O | inconclusive [inhibitor, single point] |  |
| O=C(OCC(=O)N1CCN(S(=O)(=O)c2ccc(Cl)cc2)CC1)C1CCC1 | inconclusive [inhibitor, single point] |  |
| O=C(CS(=O)(=O)c1cn(Cc2ccc(Cl)cc2)c2ccccc12)N1CCCCC1 | inconclusive [inhibitor, full curve, poor fit] |  |
| CCn1cc(C(=O)NCC(C)C)c(=O)c2cc(F)c(N3CCN(C)CC3)cc21 |  | inactive: -3% |
| Cc1ccc(NC(=O)c2ccnc(C(C)(C)C)c2)cc1 | inconclusive [inhibitor, full curve, poor fit] |  |

| SMILES | Potency | activity change, negative = inhibition |
| --- | --- | --- |
| O=C(CN1CCCC1)Nc1ccc(Oc2ccc(NC(=O)CN3CCCC3)cc2)cc1 |  | inactive: -0.702% |
| COc1cc(OC)cc(C(=O)Nc2cccc(NC(C)=O)c2)c1 | inconclusive [inhibitor, full curve] |  |
| O=C(c1ccc(Cl)cc1)N1CCCC(C(=O)N2CCCCC2)C1 (centres undefined) | inconclusive [inhibitor, single point] |  |
| Cc1cc(NS(=O)(=O)c2ccc(NC(=S)NC(=O)c3ccc(F)cc3)cc2)no1 | inconclusive [inhibitor, full curve, poor fit] |  |
| CCCN1C2CCCC1CC(NC(=O)Nc1cccc(C(C)=O)c1)C2 (centres undefined) |  | inactive: -14% |
| O=C(Nc1cccnc1)C1CC(c2ccccc2O)=NO1 (centres undefined) | inconclusive [inhibitor, single point] |  |
| COc1ccc(CCNC(=O)COC(=O)CSc2ccc([N+](=O)[O-])cc2)cc1OC | inconclusive [inhibitor, full curve, poor fit] |  |
| O=C(c1ccco1)N1CCN(c2ncnc3c(-c4ccccc4)nsc23)CC1 |  | inactive: -7.06% |
| CC12CCC(=O)N1c1c(sc3nc(N4CCOCC4)c4c(c13)CCCC4)C(=O)N2 (centres undefined) | inconclusive [inhibitor, full curve] |  |
| Cc1cc(Cl)ccc1NC(=O)COC(=O)c1c(C)noc1C |  | inactive: 1.48% |
| O=[N+]([O-])c1ccc(NC(=S)NCCc2ccc(F)cc2)cc1 |  | inactive: -1.6% |
| CCN1CCN(C(=S)Nc2ccccc2Cl)CC1 | inconclusive [inhibitor, single point] |  |
| O=C(CCn1c(=S)oc2ccccc21)Nc1cccc(O)c1 | inconclusive [inhibitor, full curve, poor fit] |  |
| Cc1cc(NC(=O)CCc2ccccc2)c([N+](=O)[O-])cc1C |  | inactive: -0.76% |
| COc1ccccc1C1(O)CC2CCC(C1)N2S(=O)(=O)c1ccc(C(C)=O)cc1 (centres undefined) | inconclusive [inhibitor, partial curve, poor fit] |  |
| CCCN1Cc2cccc(C(N)=O)c2C1=O | inconclusive [inhibitor, partial curve, poor fit] |  |
| COc1cc(Br)cc(/C=C/c2ccc3cccc(O)c3n2)c1O |  | inactive: 1.83% |
| Cn1cnc(S(=O)(=O)NC2CCN(Cc3c(F)cccc3Cl)CC2)c1 | inconclusive [inhibitor, partial curve] |  |
| O=S(=O)(NCc1cccs1)c1ccc(Cl)s1 |  | inactive: 2.26% |
| O=C(c1ccccc1)c1ccc(OCCCCN2CCCCC2)cc1 |  | inactive: -6.54% |
| COc1ccc(CCN2C(=O)CC(Nc3ccc(N4CCOCC4)cc3)C2=O)cc1OC (centres undefined) |  | inactive: 6.06% |
| N#Cc1ccc(/C=N/NC(=O)CCc2ccc(S(=O)(=O)N3CCOCC3)cc2)cc1 |  | inactive: -7.59% |
| CCCCN1C(=O)/C(=C/C=C2\N(C)c3ccccc3C2(C)C)SC1=S | inconclusive [inhibitor, partial curve, poor fit] |  |

| SMILES | Potency | activity change, negative = inhibition |
| --- | --- | --- |
| O=C(C/C=N/OCc1ccc(Cl)cc1Cl)c1ccccc1 | inconclusive [inhibitor, single point] |  |
| O=C(O)CCNc1cc2ccccc2cc1C(=O)O | inconclusive [inhibitor, single point] |  |
| O=C(CN1CCN(Cc2ccc(F)cc2)CC1)NCCc1ccccc1 |  | inactive: -20.8% |
| CN(C)c1ccc(CNC(=O)CCc2ccc(S(=O)(=O)N3CCCCCC3)cc2)cc1 | inconclusive [inhibitor, partial curve, poor fit] |  |
| CCN1CCc2nc(SCC(=O)Nc3ccc(OC)cc3)c(C#N)cc2C1 | inconclusive [inhibitor, full curve, poor fit] |  |
| COC(=O)CCNC(=O)c1ccc2nc(Cc3ccc(OC)c(OC)c3)oc2c1 |  | inactive: -15.9% |
| CC(C)n1cc(/C=C/c2cc[n+](C)cc2)c2ccccc21 |  | inactive: -7.57% |
| O=C(NNC(=O)c1ccccc1Br)c1ccccc1Cl | inconclusive [inhibitor, single point] |  |
| COc1ccccc1OCc1cc(C(=O)N2CC3C[C@@H]4CC2C[C@H](C3)C4)no1 |  | inactive: 4.65% |
| CCN(CCNC(=O)C1CCCN(Cc2nc(-c3ccc(OC)cc3)oc2C)C1)c1ccccc1 (centres undefined) |  | inactive: 0.942% |
| Cc1[nH]n(-c2ccc([N+](=O)[O-])cc2)c(=O)c1C=NCCN1CCN(C(=O)c2ccccc2)CC1 |  | inactive: -0.9% |
| Cc1ccc(NS(=O)(=O)c2ccc3[nH]c(=O)oc3c2)cc1Cl | inconclusive [inhibitor, full curve, poor fit] |  |
| COc1ccc(C(=O)NCc2nnc(SCC(=O)c3ccccc3)n2C)cc1OC | inconclusive [inhibitor, single point] |  |
| CN(c1ccc(OCC(=O)N2CCCCC2)cc1)S(=O)(=O)c1cccs1 |  | inactive: -13.1% |
| COc1ccccc1-c1nnc(N(C)C(=O)C2CCCO2)s1 (centres undefined) | inconclusive [inhibitor, partial curve, poor fit] |  |
| O=C(CNC(=O)c1ccccc1)OC(C(=O)c1ccccc1)c1ccccc1 (centres undefined) |  | inactive: 2.43% |
| O=C(NC1CC2CCC(C1)N2C(=O)NC1CCCCC1)NC12CC3CC(CC(C3)C1)C2 (centres undefined) | inconclusive [inhibitor, partial curve, poor fit] |  |
| Cc1ccc(OCCCC(=O)N(C)CC(=O)Nc2ccccc2Br)cc1 | inconclusive [inhibitor, single point] |  |
| Cc1ccc(S(=O)(=O)NC2(C(F)(F)F)C(=O)Nc3c2c(=O)n(C)c(=O)n3C)cc1 (centres undefined) | inconclusive [inhibitor, partial curve, poor fit] |  |
| CCOC(=O)Cc1csc(NC(=O)c2cc(OC)cc(OC)c2)n1 | inconclusive [inhibitor, single point] |  |
| COC(=O)c1ccccc1C(=O)N1CCOCCN(C(=O)c2ccccc2C(=O)OC)CCOCC1 | inconclusive [inhibitor, single point] |  |
| CCOC(=O)C(C#N)C(c1cccnc1)c1c(C)[nH][nH]c1=O (centres undefined) | inconclusive [inhibitor, partial curve, poor fit] |  |
| Cc1cccc(C(=O)NNC(=O)c2ccc(Cl)cc2)c1O | inconclusive [inhibitor, partial curve, poor fit] |  |
